Laboratory results from article PMC12136788.
This is one part of the list.

T1: UNK ZnF1-3 (human, UniProt Q9C0B0 31-174)
T1 sequence: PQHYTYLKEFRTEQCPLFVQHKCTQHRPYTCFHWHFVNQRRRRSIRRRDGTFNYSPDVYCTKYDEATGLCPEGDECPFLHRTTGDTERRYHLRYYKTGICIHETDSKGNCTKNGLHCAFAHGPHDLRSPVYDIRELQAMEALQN

B1: chr13:36245089:36245090:+_ENSG00000172915_ENST00000537702|perfect_dup|motif|central (ssRNA)
RNA: GGGAGUUCUACAGUCCGACGAUCUUCUGCUGCUUCUCUUCAGUACCUGUUCUGAUGCUCAUAAUGCCACCGAUUAAAAUCGGUAUUAAAAGCUACAAUGCUGCCGGAAGCCAUGCCAGUGAUCAGAGUCCUUUGGUCAUGGGACAACAGAGGAUUGAGCAUCA
B2: chr2:217001844:217001845:+_ENSG00000079246_ENST00000392132|hu_hu|hu_hu_hu_mus_False|58_78 (ssRNA)
RNA: GGGAGUUCUACAGUCCGACGAUCACCAACUUGAGGAUUAGAUCUUUUGUCAUAAGCAUAUCGAACUAUGGCGACCAUGUCUAAGUCAUCCAAAGCAUGAACGAGAGAGGAAAGGGCAACAGCUGCCGCCUCAUCAUCCUUUGCCAACAGAGGAUUGAGCAUCA
B3: chr7:13615833:13615834:+_ENSMUSG00000005566_ENSMUST00000005705|mus_hu|FALSE|FALSE (ssRNA)
RNA: GGGAGUUCUACAGUCCGACGAUCCUUGUUGAAUUGCUUGAACAUGCGGCCCACAUCCUGGGCAAACUCCUGUGGGGAGCUGUAGGGAGGUGACAACUUCUCCUGGAGGCGGGCACGGAUCAGGGUCAGAUCCAGGGUGCCACCCAACAGAGGAUUGAGCAUCA
B4: chr6:44218252:44218253:+_ENSG00000096384_ENST00000371646|hu_hu|FALSE|FALSE (ssRNA)
RNA: GGGAGUUCUACAGUCCGACGAUCAUUAGUGAGGCUCUUGUAGAAUUCUCCAUACUCCUCUUGGGUGAUGUCAUCAGGGUUUCUGGUCCAAAUAGGCUUGGUCUUGUUUAGUUCUUCCUGAUCAAUGUAUUUCUCUUUGAUCUUCAACAGAGGAUUGAGCAUCA
B5: chr13:31725248:31725249:-_ENSG00000120694_ENST00000320027|perfect_dup|FALSE|FALSE (ssRNA)
RNA: GGGAGUUCUACAGUCCGACGAUCUUUGGAUUUUGCAUCCAACUUGUACUUAGUUUUAAAUUCUGCACAAAAAUGUUCCACUAACUUUUCAUCGAAGUUUUUUCCUCCUAAGAAAGGAUCAAAAGCUGUUCCCAGUACCUUCAACAACAGAGGAUUGAGCAUCA
B6: chr2:9570881:9570882:+_ENSG00000119203_ENST00000238112|hu_mus|hu_hu_hu_mus_False|98_108 (ssRNA)
RNA: GGGAGUUCUACAGUCCGACGAUCACUUGUCUUCUGUAGAAACCAGGGCAGGGCUCCACAGUGAUCCAAAUGGAAAUGACUGAUCAACAGAAGGUCGAUCUCAGCUGGGUCGAUAAGGUCAAUGUAAGGAAGGGCAUCCAUUCCCAACAGAGGAUUGAGCAUCA
B7: chrX:41029285:41029286:+_ENSG00000124486_ENST00000378308|hu_mus|motif|central (ssRNA)
RNA: GGGAGUUCUACAGUCCGACGAUCUGUAUGAGACCAAACCUCCAAGUCAUCUACUUGCCUGCCCUGGUUUGGAAAUCGAACGGUAAAAGAGAGGUGUUUACCACGGAAAGCUCUUGACAUAGGCAAAAUUGUUCUUUCUUCAUGCAACAGAGGAUUGAGCAUCA
B8: chr1:145441008:145441009:+_ENSG00000117289_ENST00000369317|hu_mus|FALSE|FALSE (ssRNA)
RNA: GGGAGUUCUACAGUCCGACGAUCGCACGGAUCCACCUCAGUGUAAGUGGGUGGGGGCAUGAACUGGAACUCAGGGGCGUACAUAAAGAUAGGGCUGUCUUGAGAGUCGUCCACAUCGUCCAGCAGAGGGGUGGUGGGGCUCUCCAACAGAGGAUUGAGCAUCA
B9: chr8:117866615:117866616:-_ENSG00000164754_ENST00000297338|hu_hu|FALSE|FALSE (ssRNA)
RNA: GGGAGUUCUACAGUCCGACGAUCCAAUUUCUUGGUGGGCGGUGCCAGAUCCAAAGUAGUAACAAUAUCUGAAUAAUCACUAAGUUGGGCUCUAAUUGUCUUGCUAUCCAACUCUUUGACACUGUCAACAAUUAGCUUCCUCUUCAACAGAGGAUUGAGCAUCA
B10: 55789658_55791967_5080_CDS_ENSMUSG00000027799_ENSMUST00000029374|mouse|control|control (ssRNA)
RNA: GGGAGUUCUACAGUCCGACGAUCAACAACAGCCAGGGCUAAGAAUUGUGCCUGCUUGCUAUCAUCCACAUCUCGAAAGACAACAGCACGAAGGCGAUUGAUAUCAACAUCCUGAAGAAGCCUAUCGGGAUCCUUGAUGGGAGACAACAGAGGAUUGAGCAUCA
B11: 158619828_158619948_6993_3pUTR_ENSG00000272047_ENST00000607778|human|control|control (ssRNA)
RNA: GGGAGUUCUACAGUCCGACGAUCCCCCGUUUGAAGAGAUCAGGAAGACUCAUGUAUUCCAGGCAACAUUAAGAAGUUUUAAAAUUUCAAAGAAAUAAUUAACUGCAGGAAAGGGAGGGAGGGAUGAAGAAUGAUGGCCAACUACAACAGAGGAUUGAGCAUCA
B12: chr9:37780755:37780756:-_ENSG00000107371_ENST00000396521|hu_hu|motif|central (ssRNA)
RNA: GGGAGUUCUACAGUCCGACGAUCGCCAAUCUGGAGAAGAUCUGUUUUCUUUGAUCUGACGUCAUGUGUUCACAAGCUUCGGAAAUGUUUGCCAAAAUUAAAGUCUGCUGGAUGGUUUUUGCCUUAACCCAUAUUCUUCCAUUCCAACAGAGGAUUGAGCAUCA
B13: chr1:145439819:145439820:+_ENSG00000117289_ENST00000369317|hu_mus|motif|central (ssRNA)
RNA: GGGAGUUCUACAGUCCGACGAUCUUUCUUUGCCUCUUGAGUUGGCUGGCUGGGGCGAUCGAGAAAAGCCUUCACCCAGUAGUCGGCGCAACCAUAUUUUCCUUUAAAGGAUGUUCCCAGGGGCCCUUGAGGAAGCUCGAAGCCCAACAGAGGAUUGAGCAUCA
B14: chr15:44268054:44268055:+_ENSMUSG00000022338_ENSMUST00000060652|mus_mus|FALSE|FALSE (ssRNA)
RNA: GGGAGUUCUACAGUCCGACGAUCGAAAACAUAUUAUUAAUCAGAGGACUCAGAAGAAAGUCCAACAAAACAUUACUUAAAAGUUACAUACAGCAAAAAGUACUCCACAAAAAGCCAGAAAGGACUUCCAAUGGUAGGAAGCAGCAACAGAGGAUUGAGCAUCA

Target: T1, UNK ZnF1-3
Assay: nsRBNS (natural sequence RNA bind-n-seq); RBNS binding buffer (assumed for nsRBNS): 25 mM Tris pH 7.5, 150 mM KCl, 3 mM MgCl2, 0.01% Triton X-100, 500 ug/ml BSA, 20 U/ml SUPERase-In, 4 C; UNK is unkempt and MSI1 is Musashi-1; names of the RNAs are library labels; protein concentration not given here; high values mean tight binding

Binder	binding signal [enrichment R]
B1	1.05
B2	1.75
B3	0.955
B4	0.34
B5	1.41
B6	1.46
B7	1.07
B8	1.3
B9	1.07
B10	1.07
B11	2.16
B12	0.934
B13	1.1
B14	1.61
